In the supplement of paper PMC4604168 (melanoma cell lines):
The list shows a part of the results. Most values come without repeats; read them as rough.

Tests used:
Assay in all cases: cell count relative to DMSO control; melanoma cells; higher = more viable cells
Settings in all cases: library dose: standard library concentration; 72 h; first compound 2 µM
G361 = tested on: G361
IPC-298 = tested on: IPC-298
IST-MEL1 = tested on: IST-MEL1
LB2518-MEL = tested on: LB2518-MEL
LOXIMVI = tested on: LOXIMVI
MEL-HO = tested on: MEL-HO
MZ2-MEL = tested on: MZ2-MEL
MeWo = tested on: MeWo
RPMI7951 = tested on: RPMI7951
RVH-421 = tested on: RVH-421
SkMel28 = tested on: SkMel28
SkMel2 = tested on: SkMel2
SkMel30 = tested on: SkMel30
SkMel5 = tested on: SkMel5
UACC257 = tested on: UACC257
UACC62 = tested on: UACC62
WM115 = tested on: WM115
WM1716 = tested on: WM1716
WM3526 = tested on: WM3526
WM1745 = tested on: WM1745
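Also: cells treated in 1,536-well plates, then fixed and DAPI-stained, with nuclei counted from automated high-throughput microscope images.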

SMILES | cell count (G361) [%] | cell count (IPC-298) [%] | cell count (IST-MEL1) [%] | cell count (LB2518-MEL) [%] | cell count (LOXIMVI) [%] | cell count (MEL-HO) [%] | cell count (MZ2-MEL) [%] | cell count (MeWo) [%] | cell count (RPMI7951) [%] | cell count (RVH-421) [%] | cell count (SkMel28) [%] | cell count (SkMel2) [%] | cell count (SkMel30) [%] | cell count (SkMel5) [%] | cell count (UACC257) [%] | cell count (UACC62) [%] | cell count (WM115) [%] | cell count (WM1716) [%] | cell count (WM3526) [%] | cell count (WM1745) [%]
CCCCCCCCCCCCCCCCCCOP(=O)([O-])OC1CC[N+](C)(C)CC1 [Perifosine] + COc1cc2ncnc(Nc3ccc(Oc4ccccc4)cc3)c2cc1OC [SrcI1] (partner dose 10 µM) | 63.1 | 76.8 | 83.3 | 139 | 65.3 | 82.9 | 75.1 | 62.7 | 17.6 | 92.9 | 77 | 93.9 | 89.8 | 55.6 | 85.7 | 56.5 | 83.8 | 77.5 | 62.8 | –
Cn1sc(=O)n(Cc2ccccc2)c1=O + Oc1nc(-c2ccc(C(F)(F)F)cc2)nc2c1CSCC2 [XAV939] (partner dose 10 µM) | 73.8 | 93.9 | 102 | 88.7 | 100 | 81.3 | 100 | 92.3 | 76.2 | 265 | 67.3 | 106 | 88.2 | 66.5 | 80.8 | 86.1 | 95 | 42.8 | 90.5 | –
Cn1sc(=O)n(Cc2ccccc2)c1=O + Oc1cc(-c2nc(-c3ccccc3)[nH]c2-c2ccncc2)ccc1Cl [L779450] (partner dose 1 µM) | 74 | 85.1 | 88.7 | 98.6 | 125 | 87.6 | 106 | 107 | 97.8 | 81.8 | 39.6 | 23.1 | 82.1 | 77.6 | 77 | 47.7 | 55.5 | 80.7 | 51.1 | –
CCCCCCCCCCCCCCCCCCOP(=O)([O-])OC1CC[N+](C)(C)CC1 [Perifosine] + CCc1ccc(CCOc2ccc(CC3SC(=O)NC3=O)cc2)nc1 [pioglitazone] (partner dose 10 µM) | 104 | 81.6 | 71.1 | 73.9 | 43.7 | 64 | 89.1 | 79.7 | 26.7 | 127 | 55.3 | 64.6 | 70.4 | 69.3 | 93.4 | 79.1 | 90.6 | 57 | 89.5 | –
C[C@@H](N)c1ccc(C(=O)Nc2ccnc3[nH]ccc23)cc1 + CO[C@H]1C[C@@H]2CC[C@@H](C)[C@@](O)(O2)C(=O)C(=O)N2CCCC[C@H]2C(=O)O[C@H]([C@H](C)C[C@@H]2CC[C@@H](OCCO)[C@H](OC)C2)CC(=O)[C@H](C)/C=C(\C)[C@@H](O)[C@@H](OC)C(=O)[C@H](C)C[C@H](C)/C=C/C=C/C=C/1C [everolimus] (partner dose 0.1 µM) | 39 | 65.3 | 73.4 | 83.8 | 67.7 | 34.4 | 28.2 | 66 | 51.3 | 51.9 | 38.9 | 80.1 | 57.3 | 42.2 | 66.6 | 53.9 | 62.8 | 46.6 | 57.4 | 55.3
C[C@@H](N)c1ccc(C(=O)Nc2ccnc3[nH]ccc23)cc1 + O=S(=O)(c1ccccc1)N(CC(F)(F)F)c1ccc(C(O)(C(F)(F)F)C(F)(F)F)cc1 [T0901317] (partner dose 7 µM) | 65.7 | 70.4 | 87.2 | 95.2 | 68.8 | 57.4 | 61.3 | 59.9 | 59.5 | 115 | 86.4 | 84.6 | 72.1 | 49.4 | 42 | 59.4 | 102 | 40.1 | 81.7 | –
C[C@@H](N)c1ccc(C(=O)Nc2ccnc3[nH]ccc23)cc1 + N#Cc1c(O)c2c(-c3ccc(-c4ccccc4O)cc3)csc2[nH]c1=O [A769662] (partner dose 10 µM) | 87.5 | 92.5 | 74.5 | 111 | 93.6 | 73 | 61 | 60.1 | 56.7 | 59.4 | 76.2 | 101 | 76.1 | 48.1 | 65.5 | 76.2 | 103 | 31.8 | 78.1 | –
CCCCCCCCCCCCCCCCCCOP(=O)([O-])OC1CC[N+](C)(C)CC1 [Perifosine] + Cc1cc([N+](=O)[O-])ccc1NS(=O)(=O)c1cc(Cl)ccc1Cl [FH535] (partner dose 5 µM) | 54.9 | 51.6 | 65.1 | 89.2 | 67.3 | 51.4 | 69.5 | 73 | 27.8 | 71.6 | 56.8 | 79.8 | 87 | 65.2 | 70.7 | 84.5 | 76.9 | 77.2 | 86.2 | –
Cn1sc(=O)n(Cc2ccccc2)c1=O + COc1ccc(COc2ccc(Cc3cnc(N)nc3N)cc2OC)cc1 [GW2580] (partner dose 5 µM) | 114 | 100 | 96.8 | 141 | 98.6 | 104 | 104 | 95.3 | 88.8 | 104 | 116 | 99.5 | 102 | 86.9 | 73.8 | 73.7 | 125 | 96.8 | 86.8 | –
C[C@@H](N)c1ccc(C(=O)Nc2ccnc3[nH]ccc23)cc1 + O=C1NC(=O)/C(=C/c2ccc(-c3ccc(F)cc3O)o2)S1 [AS252424] (partner dose 5 µM) | 79 | 112 | 89.9 | 92.6 | 77.3 | 62.3 | 63.9 | 59.7 | 52.5 | 46.3 | 84 | 85.7 | 65.1 | 49.1 | 58.7 | 81.1 | 98.4 | 23.2 | 68.3 | –
C[C@@H](N)c1ccc(C(=O)Nc2ccnc3[nH]ccc23)cc1 + CC(C)CCN1c2nc(Nc3cc(F)c(O)c(F)c3)ncc2N(C)C(=O)C1C [BID1870] (partner dose 1 µM) | 66.3 | 77.5 | 76.5 | 130 | 82.8 | 67.4 | 51.4 | 47.3 | 45.1 | 45.9 | 60.6 | 75.6 | 71.7 | 52.7 | 56.6 | 58.9 | 90.3 | 8.19 | 57.2 | –
C[C@@H](N)c1ccc(C(=O)Nc2ccnc3[nH]ccc23)cc1 + c1cc(-c2cnn3cc(-c4ccc(OCCN5CCCCC5)cc4)cnc23)ccn1 [Dorsomorphin] (partner dose 2 µM) | 63.2 | 89.4 | 90.6 | 65.5 | 96.8 | 86.4 | 47.2 | 47.3 | 40.1 | 78.2 | 64.1 | 65.1 | 109 | 58.5 | 67.2 | 72.9 | 75.5 | 33.7 | 86.5 | –
Cn1sc(=O)n(Cc2ccccc2)c1=O + CCN(CC)CCCCNc1ncc2cc(-c3cc(OC)cc(OC)c3)c(NC(=O)NC(C)(C)C)nc2n1 [PD173074] (partner dose 0.5 µM) | 88 | 93.4 | 93.1 | 109 | 81.2 | 99.3 | 94.2 | 81.3 | 73.1 | 83.1 | 84.1 | 99.4 | 84.8 | 93.9 | 100 | 61.8 | 92.3 | 89.5 | 90.6 | –
C[C@@H](N)c1ccc(C(=O)Nc2ccnc3[nH]ccc23)cc1 + Oc1nc(-c2ccc(C(F)(F)F)cc2)nc2c1CSCC2 [XAV939] (partner dose 10 µM) | 87.8 | 78.7 | 92.9 | 96 | 83.2 | 54.1 | 59.4 | 65.2 | 48.5 | 41.3 | 79.4 | 86.2 | 85.7 | 65.9 | 54.5 | 82.3 | 74.8 | 33.9 | 95 | –
C[C@@H](N)c1ccc(C(=O)Nc2ccnc3[nH]ccc23)cc1 + Oc1cc(-c2nc(-c3ccccc3)[nH]c2-c2ccncc2)ccc1Cl [L779450] (partner dose 1 µM) | 66.3 | 101 | 93.3 | 109 | 83.7 | 83.3 | 63.8 | 52 | 83.4 | 48.7 | 52.7 | 36.4 | 102 | 61.6 | 82.8 | 62.3 | 59 | 58.3 | 52.3 | –
CCCCCCCCCCCCCCCCCCOP(=O)([O-])OC1CC[N+](C)(C)CC1 [Perifosine] + Oc1cc(-c2nc(-c3ccccc3)[nH]c2-c2ccncc2)ccc1Cl [L779450] (partner dose 1 µM) | 59.2 | 88.1 | 88.2 | 96.2 | 92.8 | 80.3 | 96.6 | 85.7 | 37 | 67.5 | 43.7 | 28.2 | 56.9 | 61.3 | 95.1 | 55.7 | 42.3 | 68 | 57.8 | –
C[C@@H](N)c1ccc(C(=O)Nc2ccnc3[nH]ccc23)cc1 + COc1ccc(COc2ccc(Cc3cnc(N)nc3N)cc2OC)cc1 [GW2580] (partner dose 5 µM) | 68.8 | 87.2 | 79.2 | 116 | 96.5 | 73.7 | 46.5 | 58.3 | 61.1 | 60.8 | 78.5 | 85 | 99.3 | 39.6 | 60.2 | 71.6 | 92.5 | 30.3 | 79.7 | –
CCCCCCCCCCCCCCCCCCOP(=O)([O-])OC1CC[N+](C)(C)CC1 [Perifosine] + COc1ccc2c(c1)CCC1C2CCC2(C)C(NCCCCCCN3C(=O)C=CC3=O)CCC12 [U73122] (partner dose 2 µM) | 82.5 | 85.5 | 86.3 | 92.5 | 153 | 92.3 | 96.6 | 71 | 10.9 | 105 | 53.7 | 85.3 | 83.2 | 121 | 113 | 79.3 | 84.4 | 79 | 80.6 | –
C[C@@H](N)c1ccc(C(=O)Nc2ccnc3[nH]ccc23)cc1 + C=CCn1c(=O)c2cnc(Nc3ccc(N4CCN(C)CC4)cc3)nc2n1-c1cccc(C(C)(C)O)n1 [MK1775] (partner dose 0.1 µM) | 58 | 77.1 | 88.2 | 47.8 | 88.7 | 79.5 | 67.9 | 69.8 | 39.1 | 50.9 | 44.9 | 77.4 | 59.3 | 45 | 71.8 | 56.7 | 53.5 | 45.9 | 59.2 | 26.5
CCCCCCCCCCCCCCCCCCOP(=O)([O-])OC1CC[N+](C)(C)CC1 [Perifosine] + Cn1cc(/C=C2\C(=O)Nc3cccnc32)c2ccccc21 [GW441756] (partner dose 2 µM) | 79.9 | 77.3 | 94.8 | 119 | 88.1 | 77.4 | 80.7 | 96.3 | 55.2 | 71.6 | 78.9 | 104 | 100 | 73.2 | 77.5 | 65.1 | 93.9 | 130 | 86 | –
